The other results are listed elsewhere or left out.

Consider 79 compounds from publication PMC12040169 (PLOS Biology, 2025).

This assay deals with T1, C. trachomatis L2/434/Bu expressing GFP (CTL2-GFP).
T1 construct: L2/434/Bu GFP intracellular growth in HeLa cells
Further details: species or system HeLa; C. trachomatis total inclusion area by high-content imaging, normalised to DMSO. The conditions noted are these: total inclusion area; 28.5 h, 10 µM; inhibitor. In outline:
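Imaging read-out: GFP inclusions and Hoechst nuclei captured by high-content imaging after fixation. Inclusion area/number = chlamydial growth; nuclei count = host cell viability. MIC calculated per earlier method.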
As to `CC(=O)Nc1cc(C(=O)CSc2nnnn2-c2ccc(C)c(C)c2)ccc1O` [CBK295143], the “% of control remaining” value is listed as 107.599. Next, `CCOc1ccc2nc(SCC(=O)Nc3c(C)n(C)n(-c4ccccc4)c3=O)sc2c1` [CBK267229]: 97.686; `O=C(Nc1cc(Cl)nc(Cl)c1)N(Cc1ccc(-c2ccccc2)cc1)CC1CCNCC1` [CBK049794]: 32.2737. `O=C(CSc1nnc(-c2ccco2)[nH]1)c1ccc(O)cc1O` [CBK264392]: the “% of control remaining” value turned out to be 104.723. For the compound `Cc1c(C(=O)N(C)CC(C)C)nnn1-c1ccc2ncccc2c1` [CBK305161], the “% of control remaining” value was 100.757. Next, `O=c1n(-c2ccc(OC(F)(F)F)cc2)ccn1S(=O)(=O)c1ccccc1` [CBK106655]: 91.4249; `O=c1[nH]c2c(-c3ccccc3)nnn2c2ccccc12` [CBK288047]: 91.0456.

`CN(c1ncc(-c2cc3ccccc3o2)cc1C(=O)NCC(F)(F)F)S(C)(=O)=O` [CBK106479]: the “% of control remaining” value is on record as 116.019.

Take `CCOC(=O)N1CCC(NC(=O)N2CCCCC2CO)CC1` (stereo not shown) [CBK155991]: the “% of control remaining” value was found to be 85.7709. Take `CC(C)(C)OC(=O)N1CCC(NCc2ccccn2)CC1` [CBK304603]: the “% of control remaining” value was 41.2243.

Take `Cc1onc(-c2ccccc2)c1C(=O)NCc1ccccc1` [CBK200116]: the “% of control remaining” value is listed as 89.7812.

Take `CC(C)Oc1cncc(Cl)n1` [CBK113321]: the “% of control remaining” value turned out to be 70.8746. Next, `Cc1cccc(-c2noc(C)c2C(=O)NCCn2ccnc2C)c1` [CBK282633]: 91.8149; `COc1ccc(C(=O)NC(NC(=S)Nc2cccc3cccnc23)C(Cl)(Cl)Cl)cc1` (stereo not shown) [CBK261028]: 70.2291. Next, `O=C(CN(c1ccccc1)S(=O)(=O)c1ccccc1[N+](=O)[O-])Nc1ccccc1` [CBK263777]: 95.142; `O=C(O)CCSc1cccc(C(F)(F)F)c1` [CBK012986]: 81.9252.

With `Cc1ccc(CN(CCN(C)C)Cc2c(C)nn(C(C)C)c2C)o1` [CBK283235], the “% of control remaining” value came out at 122.145. For `CCOc1ccc(NC(=O)c2ccc(S(=O)(=O)N(C)C)cc2)c([N+](=O)[O-])c1` [CBK263396], the “% of control remaining” value was found to be 109.207. Next, `CC1(C)CC(=O)C2=C(C1)Nc1ncnn1C2c1ccccc1F` (stereo not shown) [CBK266446]: 79.7052; `C[N+]1(c2ccccc2)CCC(N)=N1` (stereo not shown) [CBK262213I]: 95.9062; `CCn1nccc1C(=O)N1CCC(c2cc3c(C)cccc3cn2)CC1` [CBK282234]: 89.5473. `COC(=O)c1c(NC(=O)CC2Nc3cccc4cccc(c34)NC2=O)sc(C)c1C` (stereo not shown) [CBK267562]: the “% of control remaining” value turned out to be 111.37. As for `OC(CN1CCC(Oc2cccc(F)c2)CC1)c1cccs1` (stereo not shown) [CBK281453], the “% of control remaining” value worked out at 99.8458. The figure for `CCCC(C)c1cn(CCc2cc(O)nc(C)n2)nn1` (stereo not shown) [CBK306871] is 81.4463; for `CN(Cc1cnn(C)c1)C(=O)c1cc(O)nc2ccccc12` [CBK251706] it is 85.5895. Consider `Cc1ccc(S(=O)(=O)N(CC(=O)Nc2cccnc2)c2cc(C)ccc2C)cc1` [CBK264115], for which the “% of control remaining” value is given as 105.701.

`O=C(/C=C/c1ccc2c(c1)OCO2)N1CCCC2(CCN(C(=O)c3ccoc3)C2)C1` (stereo not shown) [CBK131622]: the “% of control remaining” value is 94.0423.

Consider `Cc1nc2ccc(C(=O)NC3=NN(c4ccccc4)C(=O)C3)cn2c1N(C)C(=O)CCc1ccccc1` [CBK146817], for which the “% of control remaining” value is on record as 86.7858.

Regarding `O=C(COc1ccc(S(=O)(=O)N2CCOCC2)cc1)NCc1ccccc1` [CBK268533], the “% of control remaining” value was 112.782. Next, `CCC(C)(C)c1ccc(S(=O)(=O)Nc2ccc(F)cc2F)cc1` [CBK200039]: 114.808; `O=C1CCCC2=C1C(c1ccccc1O)c1c([nH][nH]c1=O)N2` (stereo not shown) [CBK288442]: 111.924. For the compound `Cc1ccc(C)c(NC(=O)c2sc3cc(C)ccc3c2Cl)c1` [CBK263648], the “% of control remaining” value was determined as 116.664. For `O=c1/c(=C/c2cccnc2)sc2n1CN(c1cccc([N+](=O)[O-])c1)CN=2` [CBK264401], the “% of control remaining” value came to 114.415. Turning to `NS(=O)(=O)c1ccc(NC(=O)CN2CCN(c3ccc([N+](=O)[O-])cc3)CC2)cc1` [CBK266232], the “% of control remaining” value was 101.999. As to `CSCCCNC(=O)c1cnn2c(C)c(Cc3cccnc3)c(C)nc12` [CBK162164], the “% of control remaining” value stood at 26.1654. Regarding `CCN(Cc1ccncc1)C(=O)NCc1ccc2c(c1)OCO2` [CBK145056], the “% of control remaining” value is listed as 66.2899. The figure for `CCCN(Cc1nccn1C)C(=O)Cn1nc(C)c2ccccc2c1=O` [CBK307441] is 37.9144. As to `Cc1nc(C2CCCN(C(=O)c3cccnc3)C2)c2sccn12` (stereo not shown) [CBK285233], the “% of control remaining” value is 81.275. On to `CCN1CCN(Cc2c(C(C)(C)C)[nH]c3ncccc23)CC1` [CBK285341], for which the “% of control remaining” value is reported as 104.043.

As to `CC(NC(=O)CCn1c(C(F)F)cc2cccnc21)c1ccncc1` (stereo not shown) [CBK285069], the “% of control remaining” value is recorded as 78.9733. The figure for `Cc1ccc(C(=O)NCCN2CCC(O)(c3ccc(F)cc3)CC2)o1` [CBK283167] is 78.8263; for `C=CCOc1ccc(C(=O)C2=C(O)C(=O)N(Cc3cccnc3)C2c2ccc(Cl)cc2)c(C)c1` (stereo not shown) [CBK264716] it is 102.081. `CN(C)CCCn1c(=O)n(CC(=O)O)c(=O)c2c3c(sc21)CCC3` [CBK286783]: the “% of control remaining” value was determined as 62.2577. Next, `CC(=O)Nc1ccc(S(=O)(=O)N2CCC(n3c(=O)[nH]c4ccccc43)CC2)cc1` [CBK149696]: 91.1411; `CN1CCN(C(=O)c2ccc(-c3cccc(C(F)(F)F)c3)nc2N2CCOCC2)CC1` [CBK106194]: 101.522.

For `OCCN1CCN(c2cc(N3CCN(c4ccccn4)CC3)n3nccc3n2)CC1` [CBK037129], the “% of control remaining” value is on record as 140.728. The figure for `Cc1cc(C)n(C(C(=O)NCC2(C)COC2)C(C)C)n1` (stereo not shown) [CBK281758] is 112.226; for `O=C(NCC1COc2ccccc2O1)C1(c2ccccc2)CCCC1` (stereo not shown) [CBK149524] it is 97.9693; for `Cn1cc(CCNC(=O)N2CCCN(Cc3cccs3)CC2)cn1` [CBK305393] it is 39.2672.

In the case of `CC(C)CCN1CCn2nc(CNc3cnccn3)cc2C1` [CBK307540], the “% of control remaining” value is reported as 71.7395.

Take `Cc1nn(C)c(C)c1NC(=O)CN1CCN(c2cccc(Cl)c2)CC1` [CBK306052]: the “% of control remaining” value is on record as 67.5838.

`O=C(NCCN1CCCC1)c1cc2cc(Cl)ccc2[nH]1` [CBK107267]: the “% of control remaining” value worked out at 61.3543. The figure for `Cc1nc(C)c(C(=O)C2=C(O)C(=O)N(CCCN3CCOCC3)C2c2ccncc2)s1` (stereo not shown) [CBK235187] is 122.564; for `O=C1NCC2(C/C=C/CCOc3ccccc31)CCN(Cc1ccccn1)CC2` [CBK292159] it is 78.6956. Regarding `O=C(Nc1ccccc1C(=O)O)c1cccc(NC(=O)c2ccco2)c1` [CBK299774], the “% of control remaining” value amounted to 80.8851. The figure for `O=S(=O)(NCc1ccccn1)c1ccc(Cl)c(Cl)c1Cl` [CBK263978] is 93.4359; for `C=CCOc1ccc(C(=O)C2=C(O)C(=O)N(Cc3cccnc3)C2c2cccnc2)cc1` (stereo not shown) [CBK265167] it is 97.2682; for `COc1ncc(-c2ccc(NCC(C)C)nc2)c(OC)n1` [CBK036934] it is 113.499. The figure for `Cn1c(C(=O)NCCc2ccc(S(=O)(=O)NC(=O)NC3CCCCC3)cc2)cc2ccccc21` [CBK011876] is 132.544. Consider `Cc1cc2c(cc1S(=O)(=O)NCc1ccccc1)NC(=O)CO2` [CBK270159], for which the “% of control remaining” value was 98.7978. In the case of `Cc1cc2nccc(C3CCCN(C(=O)c4ccccc4F)C3)n2n1` (stereo not shown) [CBK284184], the “% of control remaining” value came out at 72.4188. On to `c1ccc(Cn2cc(-c3nccnc3OCc3ccccn3)cn2)cc1` [CBK107088], for which the “% of control remaining” value is 70.3248.

As to `COc1ccc2[nH]c(/C(C#N)=C\c3ccc(-c4cc(C(=O)O)ccc4Cl)o3)nc2c1` [CBK268370], the “% of control remaining” value is reported as 102.26. Next, `CN(C)CCN(Cc1ccncc1)Cc1cc(F)ccc1F` [CBK283095]: 98.2371.

For the compound `O=C(Nc1ccc(F)cc1)c1ccc(=O)n(CC(=O)N2CCC3(CCCCC3)C2)c1` [CBK286006], the “% of control remaining” value came to 93.1056. The figure for `c1ccc2c(c1)OCC(COc1nccc(N3CCCN(Cc4ccc5c(c4)OCO5)CC3)n1)O2` (stereo not shown) [CBK083235T] is 63.5383; for `O=C(Cn1cnc2ccccc2c1=O)Oc1cccc(NC2=NS(=O)(=O)c3ccccc32)c1` [CBK264975] it is 97.3341; for `O=C(NCCCn1ccnc1)N1CCN(Cc2ccc(Cl)cc2)CC1` [CBK305894] it is 35.8713.

Turning to `COc1ncc(-c2cncc(NCCO)n2)c(OC)n1` [CBK037939], the “% of control remaining” value is reported as 131.009.

With `O=C(C1CC1)N1CCC(n2nc(-c3cccs3)ccc2=O)CC1` [CBK284213], the “% of control remaining” value came to 71.6949.

As for `CCn1cc(C2CN(S(=O)(=O)c3cc(C)c(OC)c(C)c3)CCO2)cn1` (stereo not shown) [CBK304224], the “% of control remaining” value was found to be 26.7955.

For `Cc1ccc(C(=O)Nc2ccccc2C(=O)NC(C)C(=O)O)cc1` (stereo not shown) [CBK263540], the “% of control remaining” value is 113.929. Consider `Cc1ccc2c(c1)c(NC(=O)OC(C)C)nn2Cc1cc2c(cc1Cl)OCO2` [CBK048652], for which the “% of control remaining” value was 108.519. As for `Cc1ccc2[nH]c(C3CCCCN3C(=O)c3ccncc3)nc2c1` (stereo not shown) [CBK284000], the “% of control remaining” value was found to be 106.424. As for `CS(=O)(=O)Nc1nccnc1N1CCN(Cc2ccccc2)CC1` [CBK084268], the “% of control remaining” value is on record as 98.5385. In the case of `Cc1cc(C)c(NC(=O)C2CCCN2CCCN(C)C)c(C)c1` (stereo not shown) [CBK278172F], the “% of control remaining” value is reported as 99.6426. Take `Nc1ncnc2c1ccn2[C@H]1C[C@@H](O)[C@@H](CO)O1` [CBK201258]: the “% of control remaining” value is given as 111.569. The figure for `O=C(c1ccc(F)cc1)C1CCN(CCC(c2ccccc2)c2ccccc2)CC1` [CBK149138] is 81.8005; for `CN(C)S(=O)(=O)c1ccc(C(=O)Nc2cccc(N3Cc4ccccc4C3)c2)cc1` [CBK266025] it is 126.453.
